# Test results as given in the supplement of paper PMC8728848.
# The other results are listed elsewhere or left out.
# How the values were obtained:
# Assay in all cases: glycan array binding signal (z-score within array); higher = stronger binding
# Settings in all cases: glycan notation: IUPAC condensed, linker removed
# [1] = biological target: Man(a1-2)Man(a1-2)Man(a1-6)[Man(a1-3)]Man
# Procedure, shortened: (§1)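 Arrays were curated from the Consortium for Functional Glycomics database, 3228 in total, and kept only where the protein sequence was available. Binding is expressed as a within-array Z-score. This score was averaged across arrays of the same protein sequence at different concentrations or buffers and across linkers, and negative values can be read as non-binding.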
# Man(a1-2)Man(a1-3)Man = biological target: Man(a1-2)Man(a1-3)Man
# Procedure, shortened: as §1
# [2] = biological target: Man(a1-2)Man(a1-3)[Man(a1-2)Man(a1-6)]Man
# Procedure, shortened: as §1
# [3] = biological target: Man(a1-2)Man(a1-3)[Man(a1-3)[Man(a1-6)]Man(a1-6)]Man(b1-4)GlcNAc(b1-4)GlcNAc
# Procedure, shortened: as §1
# [4] = biological target: Man(a1-2)Man(a1-3)[Man(a1-6)]Man(a1-6)[Man(a1-2)Man(a1-3)]Man(b1-4)GlcNAc(b1-4)GlcNAc
# Procedure, shortened: as §1
# Man(a1-3)[Man(a1-6)]Man = biological target: Man(a1-3)[Man(a1-6)]Man
# Procedure, shortened: as §1
# [5] = biological target: Man(a1-3)[Man(a1-6)]Man(a1-6)[Man(a1-3)]Man(b1-4)GlcNAc(b1-4)GlcNAc
# Procedure, shortened: as §1
# [6] = biological target: Man(a1-3)[Man(a1-6)]Man(b1-4)GlcNAc(b1-4)GlcNAc
# Procedure, shortened: as §1
# Man(b1-4)GlcNAc = biological target: Man(b1-4)GlcNAc
# Procedure, shortened: as §1
# Neu5Ac(a2-3)Gal = biological target: Neu5Ac(a2-3)Gal
# Procedure, shortened: as §1
# [7] = biological target: Neu5Ac(a2-3)Gal(b1-3)GalNAc
# Procedure, shortened: as §1
# [8] = biological target: Neu5Ac(a2-3)Gal(b1-3)GalNAc(b1-3)Gal(a1-4)Gal(b1-4)Glc
# Procedure, shortened: as §1
# [9] = biological target: Neu5Ac(a2-3)Gal(b1-3)GalNAc(b1-4)[Neu5Ac(a2-3)]Gal(b1-4)Glc
# Procedure, shortened: as §1
# [10] = biological target: Neu5Ac(a2-3)Gal(b1-3)GalNAc6S
# Procedure, shortened: as §1
# [11] = biological target: Neu5Ac(a2-3)Gal(b1-3)GlcNAc
# Procedure, shortened: as §1
# [12] = biological target: Neu5Ac(a2-3)Gal(b1-3)GlcNAc(b1-3)Gal(b1-3)GlcNAc
# Procedure, shortened: as §1
# [13] = biological target: Neu5Ac(a2-3)Gal(b1-3)GlcNAc(b1-3)Gal(b1-4)GlcNAc
# Procedure, shortened: as §1
# [14] = biological target: Neu5Ac(a2-3)Gal(b1-3)GlcNAc6S
# Procedure, shortened: as §1
# [15] = biological target: Neu5Ac(a2-3)Gal(b1-3)[Fuc(a1-4)]GlcNAc
# Procedure, shortened: as §1
# [16] = biological target: Neu5Ac(a2-3)Gal(b1-3)[Fuc(a1-4)]GlcNAc(b1-3)Gal(b1-4)[Fuc(a1-3)]GlcNAc
# Procedure, shortened: as §1
# [17] = biological target: Neu5Ac(a2-3)Gal(b1-3)[Neu5Ac(a2-3)Gal(b1-4)]GlcNAc
# Procedure, shortened: as §1
# [18] = biological target: Neu5Ac(a2-3)Gal(b1-3)[Neu5Ac(a2-6)]GalNAc
# Procedure, shortened: as §1
# Neu5Ac(a2-3)Gal(b1-4)Glc = biological target: Neu5Ac(a2-3)Gal(b1-4)Glc
# Procedure, shortened: as §1
# [19] = biological target: Neu5Ac(a2-3)Gal(b1-4)GlcNAc
# Procedure, shortened: as §1
# [20] = biological target: Neu5Ac(a2-3)Gal(b1-4)GlcNAc(b1-3)Gal(b1-3)GlcNAc
# Procedure, shortened: as §1
# [21] = biological target: Neu5Ac(a2-3)Gal(b1-4)GlcNAc(b1-3)Gal(b1-4)GlcNAc
# Procedure, shortened: as §1
# [22] = biological target: Neu5Ac(a2-3)Gal(b1-4)GlcNAc(b1-3)Gal(b1-4)GlcNAc(b1-3)Gal(b1-4)GlcNAc
# Procedure, shortened: as §1
# [23] = biological target: Neu5Ac(a2-3)Gal(b1-4)GlcNAc(b1-3)Gal(b1-4)[Fuc(a1-3)]GlcNAc
# Procedure, shortened: as §1
# [24] = biological target: Neu5Ac(a2-3)Gal(b1-4)GlcNAc(b1-6)[Gal(b1-3)]GalNAc
# Procedure, shortened: as §1
# [25] = biological target: Neu5Ac(a2-3)Gal(b1-4)GlcNAc6S
# Procedure, shortened: as §1
# [26] = biological target: Neu5Ac(a2-3)Gal(b1-4)[Fuc(a1-3)]GlcNAc
# Procedure, shortened: as §1
# [27] = biological target: Neu5Ac(a2-3)Gal(b1-4)[Fuc(a1-3)]GlcNAc(b1-3)Gal
# Procedure, shortened: as §1
# [28] = biological target: Neu5Ac(a2-3)Gal(b1-4)[Fuc(a1-3)]GlcNAc(b1-3)Gal(b1-4)GlcNAc
# Procedure, shortened: as §1
# [29] = biological target: Neu5Ac(a2-3)Gal(b1-4)[Fuc(a1-3)]GlcNAc(b1-3)Gal(b1-4)[Fuc(a1-3)]GlcNAc(b1-3)Gal(b1-4)[Fuc(a1-3)]GlcNAc
# Procedure, shortened: as §1
# [30] = biological target: Neu5Ac(a2-3)Gal(b1-4)[Fuc(a1-3)]GlcNAc6S
# Procedure, shortened: as §1
# [31] = biological target: Neu5Ac(a2-3)Gal6S(b1-4)GlcNAc
# Procedure, shortened: as §1
# [32] = biological target: Neu5Ac(a2-3)Gal6S(b1-4)[Fuc(a1-3)]GlcNAc
# Procedure, shortened: as §1
# Neu5Ac(a2-3)GalNAc = biological target: Neu5Ac(a2-3)GalNAc
# Procedure, shortened: as §1
binder,measurement,setting,value
"TLEC1 (Arabidopsis thaliana), Q9C5Q9 (protein) MSGASSVSSICSSNVSLIPTGPQVFINFRGKDLRKGFMSFLKPALKKEKINVFIDEQEERGKYLISLFDTIGESKIALVIFSEGYCESHWCMDELVKIKEYMDQNRLIIIPIFYRLDLDVVKDLTGKFGDNFWDLVDKYQPEPKKLHKWTEALFSVCELFSLILPKHSDISDRDFVKSIVKAVKKVQKNFFQRRNGEIEYQDFSVPACKLTITMHESPNEEAVQVTVLNEFYQMKNQSPVPSYEFKFWVDLTRPKGNVFMIDARDLSIAWSEDSNHWTWLPLPNQNSNESVMEIAFLKSASWLDVAGKFDTRYLTPRTRYEVVFVVKLEYTFEWETLVKLKLDLPNTWEKPQEQSVDMFDYISDQWLDIPVGEFTTSKKNVGEISFAMYEHECQLWKSGLFVKGVTIRPKY",glycan array binding signal (z-score),[1],-0.204
same,glycan array binding signal (z-score),Man(a1-2)Man(a1-3)Man,-0.124
same,glycan array binding signal (z-score),[2],-0.196
same,glycan array binding signal (z-score),[3],-0.392
same,glycan array binding signal (z-score),[4],-0.435
same,glycan array binding signal (z-score),Man(a1-3)[Man(a1-6)]Man,-0.105
same,glycan array binding signal (z-score),[5],-0.391
same,glycan array binding signal (z-score),[6],-0.449
same,glycan array binding signal (z-score),Man(b1-4)GlcNAc,-0.208
same,glycan array binding signal (z-score),Neu5Ac(a2-3)Gal,-0.392
same,glycan array binding signal (z-score),[7],-0.332
same,glycan array binding signal (z-score),[8],-0.556
same,glycan array binding signal (z-score),[9],-0.512
same,glycan array binding signal (z-score),[10],-0.233
same,glycan array binding signal (z-score),[11],-0.468
same,glycan array binding signal (z-score),[12],-0.526
same,glycan array binding signal (z-score),[13],-0.488
same,glycan array binding signal (z-score),[14],-0.383
same,glycan array binding signal (z-score),[15],-0.525
same,glycan array binding signal (z-score),[16],-0.08
same,glycan array binding signal (z-score),[17],-0.547
same,glycan array binding signal (z-score),[18],-0.553
same,glycan array binding signal (z-score),Neu5Ac(a2-3)Gal(b1-4)Glc,-0.3
same,glycan array binding signal (z-score),[19],-0.492
same,glycan array binding signal (z-score),[20],-0.473
same,glycan array binding signal (z-score),[21],-0.327
same,glycan array binding signal (z-score),[22],-0.588
same,glycan array binding signal (z-score),[23],-0.405
same,glycan array binding signal (z-score),[24],-0.341
same,glycan array binding signal (z-score),[25],-0.498
same,glycan array binding signal (z-score),[26],-0.372
same,glycan array binding signal (z-score),[27],-0.504
same,glycan array binding signal (z-score),[28],0.154
same,glycan array binding signal (z-score),[29],-0.302
same,glycan array binding signal (z-score),[30],-0.464
same,glycan array binding signal (z-score),[31],0.346
same,glycan array binding signal (z-score),[32],-0.194
same,glycan array binding signal (z-score),Neu5Ac(a2-3)GalNAc,-0.362
